The other results are listed elsewhere or left out.

The target of this experiment is T1, MBP-FoxP1dN (Mus musculus, UniProt P58462 326-579).
T1 sequence: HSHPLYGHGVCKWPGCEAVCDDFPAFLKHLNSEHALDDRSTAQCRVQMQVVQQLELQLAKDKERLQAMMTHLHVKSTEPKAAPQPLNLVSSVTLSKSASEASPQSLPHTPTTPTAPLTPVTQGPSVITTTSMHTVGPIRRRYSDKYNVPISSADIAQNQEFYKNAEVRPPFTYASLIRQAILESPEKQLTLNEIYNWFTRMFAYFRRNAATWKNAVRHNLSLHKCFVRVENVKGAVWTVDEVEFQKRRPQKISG
In words: PD-seq (MBP pull-down with sequencing); 20 mM Tris-HCl pH 7.5, 100 mM NaCl, 1.5 mM MgCl2, 0.4 uM protein, 0.1 uM dsDNA library, 30 min, room temperature, amylose pull-down; high values mean tight binding. To be noted: protein: recombinant; tags: His6-MBP; chain copies: 2; dsDNA, one strand shown. A digest of the protocol:
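E. coli-expressed mouse FoxP3 or FoxP1 fragment, N-terminus removed and tagged with His6-MBP, was used at 0.4 µM against 0.1 µM of a Klenow-filled degenerate double-stranded DNA library. After 30 min at room temperature in Tris pH 7.5 buffer with NaCl and MgCl2, complexes were pulled down on amylose resin and washed three times. Binding is pull-down over input reads-per-million enrichment from pooled replicates of the proteinase K-released, PCR-barcoded, Illumina-sequenced DNA.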
Take “GATGATTGTTCTCCCAGCTGATGAATTACTGGGATCGAGTAAACAAATTTTCCTAATCTTTCTGTTCAAGCGCCATCTAC”: the binding signal was 0.999 RPM ratio (pull-down/input).

With “GATGATTGTTCTCCCAGCTGATGAATTCTTCTGATCGAGTAAACAAATTTTCCTAATCTTTCTGTTCAAGCGCCATCTAC”, the binding signal is 0.96 RPM ratio (pull-down/input).

As to “GATGATTGTTCTCCCAGCTGATGAATTGTGGATGTCGAGTAAACAAATTTTCCTAATCTTTCTGTTCAAGCGCCATCTAC”, the binding signal was 1.12 RPM ratio (pull-down/input).

In the case of “GATGATTGTTCTCCCAGCTGATGAATTTAAAGGTTCGAGTAAACAAATTTTCCTAATCTTTCTGTTCAAGCGCCATCTAC”, the binding signal is 0.8 RPM ratio (pull-down/input).

For the sequence “GATGATTGTTCTCCCAGCTGATGAATTGGCCCTGTCGAGTAAACAAATTTTCCTAATCTTTCTGTTCAAGCGCCATCTAC”, the binding signal was 0.778 RPM ratio (pull-down/input).

Turning to “GATGATTGTTCTCCCAGCTGATGAATTATGGATGTCGAGTAAACAAATTTTCCTAATCTTTCTGTTCAAGCGCCATCTAC”, the binding signal was 0.983 RPM ratio (pull-down/input).

Consider “GATGATTGTTCTCCCAGCTGATGAATTCAGGAAATCGAGTAAACAAATTTTCCTAATCTTTCTGTTCAAGCGCCATCTAC”, for which the binding signal is 0.945 RPM ratio (pull-down/input).

As to “GATGATTGTTCTCCCAGCTGATGAATTACTGTTCTCGAGTAAACAAATTTTCCTAATCTTTCTGTTCAAGCGCCATCTAC”, the binding signal was 1.05 RPM ratio (pull-down/input).

As to “GATGATTGTTCTCCCAGCTGATGAATTTTGGCAGTCGAGTAAACAAATTTTCCTAATCTTTCTGTTCAAGCGCCATCTAC”, the binding signal is 0.907 RPM ratio (pull-down/input).

For the sequence “GATGATTGTTCTCCCAGCTGATGAATTGAAATGATCGAGTAAACAAATTTTCCTAATCTTTCTGTTCAAGCGCCATCTAC”, the binding signal is 0.862 RPM ratio (pull-down/input).

As for “GATGATTGTTCTCCCAGCTGATGAATTGGAAGGGTCGAGTAAACAAATTTTCCTAATCTTTCTGTTCAAGCGCCATCTAC”, the binding signal is 0.816 RPM ratio (pull-down/input).

Consider “GATGATTGTTCTCCCAGCTGATGAATTAACGACATCGAGTAAACAAATTTTCCTAATCTTTCTGTTCAAGCGCCATCTAC”, for which the binding signal is 1.15 RPM ratio (pull-down/input).

In the case of “GATGATTGTTCTCCCAGCTGATGAATTAAGGTGATCGAGTAAACAAATTTTCCTAATCTTTCTGTTCAAGCGCCATCTAC”, the binding signal was 0.906 RPM ratio (pull-down/input).

For “GATGATTGTTCTCCCAGCTGATGAATTCGTCTGTTCGAGTAAACAAATTTTCCTAATCTTTCTGTTCAAGCGCCATCTAC”, the binding signal is 0.828 RPM ratio (pull-down/input).

Regarding “GATGATTGTTCTCCCAGCTGATGAATTACGGCACTCGAGTAAACAAATTTTCCTAATCTTTCTGTTCAAGCGCCATCTAC”, the binding signal is 0.941 RPM ratio (pull-down/input).

For “GATGATTGTTCTCCCAGCTGATGAATTTAAGCTCTCGAGTAAACAAATTTTCCTAATCTTTCTGTTCAAGCGCCATCTAC”, the binding signal was 0.836 RPM ratio (pull-down/input).

On to “GATGATTGTTCTCCCAGCTGATGAATTGAAGCCATCGAGTAAACAAATTTTCCTAATCTTTCTGTTCAAGCGCCATCTAC”, for which the binding signal was 0.824 RPM ratio (pull-down/input).

Take “GATGATTGTTCTCCCAGCTGATGAATTAGCGTGTTCGAGTAAACAAATTTTCCTAATCTTTCTGTTCAAGCGCCATCTAC”: the binding signal is 0.937 RPM ratio (pull-down/input).

As for “GATGATTGTTCTCCCAGCTGATGAATTATAGGGATCGAGTAAACAAATTTTCCTAATCTTTCTGTTCAAGCGCCATCTAC”, the binding signal is 0.912 RPM ratio (pull-down/input).

Regarding “GATGATTGTTCTCCCAGCTGATGAATTTTTATATTCGAGTAAACAAATTTTCCTAATCTTTCTGTTCAAGCGCCATCTAC”, the binding signal was 1.1 RPM ratio (pull-down/input).

With “GATGATTGTTCTCCCAGCTGATGAATTCTCAGCGTCGAGTAAACAAATTTTCCTAATCTTTCTGTTCAAGCGCCATCTAC”, the binding signal is 0.837 RPM ratio (pull-down/input).

Turning to “GATGATTGTTCTCCCAGCTGATGAATTGCTCCGGTCGAGTAAACAAATTTTCCTAATCTTTCTGTTCAAGCGCCATCTAC”, the binding signal is 0.888 RPM ratio (pull-down/input).

Take “GATGATTGTTCTCCCAGCTGATGAATTAGTGATCTCGAGTAAACAAATTTTCCTAATCTTTCTGTTCAAGCGCCATCTAC”: the binding signal was 0.985 RPM ratio (pull-down/input).

As to “GATGATTGTTCTCCCAGCTGATGAATTGGACAAATCGAGTAAACAAATTTTCCTAATCTTTCTGTTCAAGCGCCATCTAC”, the binding signal is 1.05 RPM ratio (pull-down/input).

As for “GATGATTGTTCTCCCAGCTGATGAATTTAGGTCGTCGAGTAAACAAATTTTCCTAATCTTTCTGTTCAAGCGCCATCTAC”, the binding signal is 0.87 RPM ratio (pull-down/input).

Take “GATGATTGTTCTCCCAGCTGATGAATTTCGACGATCGAGTAAACAAATTTTCCTAATCTTTCTGTTCAAGCGCCATCTAC”: the binding signal was 0.836 RPM ratio (pull-down/input).

As for “GATGATTGTTCTCCCAGCTGATGAATTCTTCTAGTCGAGTAAACAAATTTTCCTAATCTTTCTGTTCAAGCGCCATCTAC”, the binding signal was 0.874 RPM ratio (pull-down/input).

As to “GATGATTGTTCTCCCAGCTGATGAATTAATGACGTCGAGTAAACAAATTTTCCTAATCTTTCTGTTCAAGCGCCATCTAC”, the binding signal was 0.95 RPM ratio (pull-down/input).

Turning to “GATGATTGTTCTCCCAGCTGATGAATTACCACTTTCGAGTAAACAAATTTTCCTAATCTTTCTGTTCAAGCGCCATCTAC”, the binding signal was 1.07 RPM ratio (pull-down/input).

Regarding “GATGATTGTTCTCCCAGCTGATGAATTGTTCTATTCGAGTAAACAAATTTTCCTAATCTTTCTGTTCAAGCGCCATCTAC”, the binding signal is 1.34 RPM ratio (pull-down/input).

Regarding “GATGATTGTTCTCCCAGCTGATGAATTATTCAGGTCGAGTAAACAAATTTTCCTAATCTTTCTGTTCAAGCGCCATCTAC”, the binding signal is 0.916 RPM ratio (pull-down/input).

These data come from article PMC12820563, “FoxP3 forms a head-to-head dimer in vivo and stabilizes its multimerization on adjacent microsatellites”.
